Data published in US20250382354A1.

Molecular target: SARS-CoV-2 FP peptide (SARS-CoV-2)
Experiment: peptide ELISA

B1: fp.007 (antibody, V domains shown)
VH: EVQLVESGGGLVKPGGSLRLSCAGTGFIFSDAWMTWVRQAPGKGLEWVGRIKSKADGGTTDYAAPVKGRFTISRDDSKNTLYLEINSLKTEDTAVYYCTTGRSRYCIGAVCYYFDHWGQGTLVTVSS
VL: [… about 100 residues …]YCTQTLQTPYTFGQGTKLEIK
  EC50: 0.177 µg/mL
